Measured values published in PubChem BioAssay AID488969 (Vanderbilt High Throughput Screening Facility, 2010).
Over roughly 110,000 compounds, “z-score” has its median near -0.1; the highest 2% begin near 2. The list shows a part of the results. Activity calls are given as the source filed them.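 How the source made its calls: active means z-score in the third read window above 3 or below -3; inactive means the rest.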

Biological target: Metabotropic glutamate receptor 8 (Rattus norvegicus) (UniProt P70579)
UniProt P70579, sequence (P70579 whole entry, looked up): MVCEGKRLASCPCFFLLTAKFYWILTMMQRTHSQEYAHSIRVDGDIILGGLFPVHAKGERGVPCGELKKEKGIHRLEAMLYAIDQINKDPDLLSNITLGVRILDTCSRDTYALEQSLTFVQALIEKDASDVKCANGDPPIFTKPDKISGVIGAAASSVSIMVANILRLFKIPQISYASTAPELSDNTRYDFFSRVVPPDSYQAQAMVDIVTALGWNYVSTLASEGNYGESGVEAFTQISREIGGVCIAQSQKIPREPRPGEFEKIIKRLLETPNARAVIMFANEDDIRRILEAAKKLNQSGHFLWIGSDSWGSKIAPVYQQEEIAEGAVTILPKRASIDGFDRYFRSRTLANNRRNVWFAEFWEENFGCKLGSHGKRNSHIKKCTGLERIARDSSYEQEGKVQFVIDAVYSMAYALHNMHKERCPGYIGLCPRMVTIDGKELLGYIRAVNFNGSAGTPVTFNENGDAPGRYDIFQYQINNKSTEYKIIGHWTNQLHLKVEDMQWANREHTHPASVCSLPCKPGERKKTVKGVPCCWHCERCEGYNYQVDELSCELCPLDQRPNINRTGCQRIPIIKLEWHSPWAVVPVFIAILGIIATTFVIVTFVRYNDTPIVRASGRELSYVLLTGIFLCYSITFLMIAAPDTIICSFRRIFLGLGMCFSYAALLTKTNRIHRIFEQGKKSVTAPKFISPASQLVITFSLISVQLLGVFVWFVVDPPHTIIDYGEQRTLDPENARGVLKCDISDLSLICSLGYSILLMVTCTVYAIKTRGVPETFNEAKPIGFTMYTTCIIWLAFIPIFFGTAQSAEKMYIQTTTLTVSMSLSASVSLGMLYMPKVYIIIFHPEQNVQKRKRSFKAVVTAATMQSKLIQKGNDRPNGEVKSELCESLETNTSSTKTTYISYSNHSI
Assay: mGluR8 Gi/Go-coupled signaling modulation – cell-based, rat, thallium flux, HTS, primary screen (AID 488969)
Settings: HEK293 rat mGluR8, GIRK (G protein-gated inwardly rectifying potassium channel) thallium flux, FluoZin2; at 10 µM; stronger effect = higher value; submaximal glutamate (EC20) added with thallium

Row | Structure (SMILES) | z-score
1 | O=C(Cc1csc(N2CCOCC2)n1)N/N=C/c1ccc(F)cc1 | -0.627
2 | Cc1cccc(N(C(=O)CNC(=O)c2cccs2)C(C(=O)NC2CCCC2)c2cccnc2)c1 (configuration not stated) | -0.122
3 | O=C1S/C(=C/c2ccccc2F)C(=O)N1CCN=C1NS(=O)(=O)c2ccccc21 | -0.278
4 | O=C(CCc1ccc(S(=O)(=O)N2CCOCC2)cc1)NCCCN1CCCC1=O | 0.363
5 | CC1Cc2cc(C(=O)O)ccc2O1 (configuration not stated) | 0.0864
6 | O=C(NC1(C(F)(F)F)NC(=O)N(CCc2ccccc2)C1=O)C1CC1 (configuration not stated) | 0.0916
7 | COc1cc(/C=N/NC(=O)C2c3ccccc3Oc3ccccc32)ccc1O | 0.137
8 | CCOC(=O)c1c(C)n(C)c2ccc(OC)c(NC(=O)c3cccs3)c12 | 0.203
9 | CC1(C)CC(=O)c2c(n(-c3cccc4ccccc34)ccc2=O)C1 | -0.339
10 | CCC(=O)Nc1ccc(NC(=O)c2ccco2)c(OC)c1 | 0.122
11 | CCOC(=O)Cn1c(=O)c(-c2ccccc2NC)nc2ccccc21 | -0.163
12 | Cc1cccc2sc(NC(=O)CSc3nc4ccccc4o3)nc12 | 0.0847
13 | COC(=O)c1ccc(OCC(=O)c2ccc(C)c(C)c2)cc1 | -0.0502
14 | CCCCCc1c(C)nc(N2CCc3ccccc3C2)[nH]c1=O | 0.708
15 | Cc1ccccc1C(=O)N/N=C1/SCC(=O)N1Cc1ccc2c(c1)OCO2 | -0.0826
16 | O=C(Nc1nccs1)c1ccc(-c2ccc(Cl)cc2Cl)o1 | -0.313
17 | Cc1ccsc1C(=O)OCC(=O)Nc1sccc1C(N)=O | 0.376
18 | Cc1cccc(NC(=O)c2ccccn2)c1C | 0.479
19 | CC(C)(C)c1ccc(C(=O)NCCC(=O)NCc2ccco2)cc1 | 0.46
20 | Cc1cc(O)ccc1N/C=C1\CCCC1=O | 0.233
21 | COc1ccccc1OCC(=O)N1CC2(C)CC1CC(C)(C)C2 (configuration not stated) | -0.444
22 | c1ccc(-c2nnc(SCCC3OCCCO3)o2)cc1 | -0.0671
23 | CCOC(=O)CSc1nnc(Cc2ccccc2)n1-c1cccc(Cl)c1 | -0.436

Row | Structure (SMILES) | z-score
24 | Cc1nc2ccc(NC(=O)c3sccc3C)cc2s1 | -0.477
25 | O=C(c1cccc(F)c1)n1nnc2ccccc21 | 0.419
26 | COc1ccc(CNC(=O)CN(c2cc(C)cc(C)c2)S(=O)(=O)c2c(C)noc2C)cc1 | -0.0907
27 | COc1cc(OC)c(C2CC(=O)N3CN(c4ccc(C)cc4)CSC3=C2C#N)cc1OC (configuration not stated) | 0.362
28 | O=C(Nc1ccccc1C(=O)NCc1ccccc1)c1ccccc1Br | -0.438
29 | O=S(=O)(c1cc(Cl)cc(Cl)c1)N1CCCC1c1nc2ccccc2s1 (configuration not stated) | -0.294
30 | O=C(c1ccco1)N(Cc1cc2ccccc2[nH]c1=O)C1CCCCC1 | -1.01
31 | Nc1sc2c(c1C(=O)NC1CCS(=O)(=O)C1)CCCC2 (configuration not stated) | 0.0575
32 | CCOC(=O)/C(C#N)=C/c1ccc(-c2ccsc2C(=O)OC)o1 | -2.97
33 | COc1cccc(-n2c(Cc3cc(=O)[nH]c(=O)[nH]3)nnc2SCC(=O)N2CCCCC2)c1 | -0.312
34 | Cc1ccc(S(=O)(=O)N2CCOCC2)cc1C(=O)N1CCOCC1 | -0.483
35 | CC1CN(C(=O)CSc2nnc(-c3ccncc3)n2-c2ccccc2)CC(C)O1 (configuration not stated) | 0.267
36 | N#Cc1nc(COc2ccc(Br)cc2)oc1N1CCCC1 | 0.0368
37 | COC(=O)c1ccccc1NC(=O)CSc1ccc(C)cc1 | -0.243
38 | COCCn1nnnc1C(c1cccc(C(F)(F)F)c1)N1CCOCC1 (configuration not stated) | 0.00424
39 | CCOC(=O)C/C(C)=N/NC(=O)c1cccs1 | -0.0932
40 | NCCc1nnc(SCC(N)=O)o1 | 0.0432
41 | Cc1ccc(C(=O)Oc2coc(CSc3nnc(NC(=O)C4CC4)s3)cc2=O)cc1C | 0.84
42 | Cc1cccc(NC(=O)c2cc3n(n2)C(C(F)(F)F)CC(c2ccc4c(c2)OCO4)N3)c1 (configuration not stated) | 0.258
43 | CSc1nc(C)cc(OCCNS(=O)(=O)c2ccc(C)cc2)n1 | -0.0241
44 | CCCn1c2ccccc2c2nnc(SCC(=O)OCC)nc21 | -1.64
45 | CC1CN(C(=O)COc2ncnc3ccccc23)CC(C)O1 (configuration not stated) | 0.198
46 | N#Cc1ccc(CSc2nnc(-c3ccccn3)n2-c2ccccc2)cc1 | -0.343

Row | Structure (SMILES) | z-score
47 | O=C(COC(=O)c1ccccn1)Nc1c(Cl)cccc1Cl | 1.69
48 | CCCNC(=O)COC(=O)c1ccc(OCC(=O)Nc2ccccc2OC)c(OC)c1 | -0.112
49 | CCc1nnc(NC(=O)c2cnccn2)s1 | 0.354
50 | O=C(c1ccco1)N1CCN(c2ccc(Cl)c(Cl)c2)CC1 | -0.938
51 | Cc1c(NS(=O)(=O)c2ccc(N3CCCCC3)c([N+](=O)[O-])c2)c(=O)n(-c2ccccc2)n1C | 0.0368
52 | CC1(C)CC(=O)c2c(nc3ccccc3c2N)C1 | -1.01
53 | COc1cccc(NC(=O)c2ccc(CN3CCOCC3)cc2)c1 | -0.0995
54 | Cc1cc(C)n(Cc2ccc(C(=O)O)cc2)n1 | 0.0792
55 | Cn1c(=O)c2c(ncn2Cc2cc(-c3ccccc3)no2)n(C)c1=O | 1.04
56 | Cc1cc(C(=O)Nc2ccc(N3CCCC3)c(Cl)c2)ccc1[N+](=O)[O-] | -0.075
57 | CC(C)N(O)C(=O)NC(C)(C)C | 0.872
58 | Cc1ccsc1C(=O)OCC(=O)c1cc(C)n(CC2CCCO2)c1C (configuration not stated) | -1.25
59 | O=C1c2ccccc2C(Nc2ccc3c(c2)OCCO3)N1Cc1ccco1 (configuration not stated) | -1.02
60 | Cc1ccc(NC(=O)C(=S)NCc2ccco2)cc1 | -0.0533
61 | O=C(CN1C(=O)C2CCCN2c2ncc(Cl)cc21)NCc1ccc2c(c1)OCO2 (configuration not stated) | -0.228
62 | COc1cccc2cc(C(=O)NCc3ccco3)c(=Nc3ccc(C(=O)O)cc3)oc12 | -0.381
63 | O=C1/C(=C\c2ccc(-c3ccccc3Cl)o2)SC(=S)N1CC1CCCO1 (configuration not stated) | 0.755
64 | COc1ccc(C(=O)O)cc1Nc1cc(C)nc2ncnn12 | -0.682
65 | O=C(COc1ccc(S(=O)(=O)N2CCCC2)cc1Cl)NCc1ccco1 | 0.784
66 | c1ccc2c(CN3CCOCC3)c3ccccc3c(CN3CCOCC3)c2c1 | -0.443
67 | COc1ccc(CCNC(=O)CSc2nc3c(c(=O)n(C)c(=O)n3C)n2C)cc1OC | -0.147
68 | O=C(Nc1ccc(N2CCOCC2)c(Cl)c1)c1ccccc1F | -0.337
69 | CN(C)c1ccc(/C=C/C(O)=C2/C(=O)N(C)C3(C)CC2c2ccccc2O3)cc1 (configuration not stated) | -0.664

Row | Structure (SMILES) | z-score
70 | Cc1nc2ccc(CCO)cc2s1 | -0.905
71 | CCOC(=O)C1C(=O)CC(C)(O)C(C(=O)OCC)C1c1ccc(N(CC)CC)cc1 (configuration not stated) | -0.205
72 | O=C(Nc1ccc(N2CCCCC2)c(Cl)c1)c1ccc(N2CCOCC2)c([N+](=O)[O-])c1 | 0.251
73 | Cn1c(=O)c2c(nc(SCC(=O)NCC3CCCO3)n2C)n(C)c1=O (configuration not stated) | 0.254
74 | CCCn1nnc(NC(=O)c2cc(Br)ccc2OC)n1 | -0.376
75 | CN(CC(=O)N1CCN(c2ccccn2)CC1)S(=O)(=O)c1ccccc1 | 0.121
76 | Cc1cccc2cc(CN(Cc3cccs3)S(=O)(=O)c3ccc4c(c3)OCCO4)c(=O)[nH]c12 | -1.06
77 | O=[N+]([O-])c1ccc(Sc2cccc3cccnc23)c([N+](=O)[O-])c1 | 0.691
78 | COc1ccc(/C=N/n2c(=O)[nH]c3c([nH]c4ccc(Br)cc43)c2=O)cc1CN1CCOCC1 | 0.012
79 | O=C(OCCN1CCCCC1)c1ccc(Cl)cc1 | 0.422
80 | COc1ccc(N2CCN(C(=S)Nc3cccc(C)c3C)CC2)cc1 | -0.0361
81 | N#Cc1c(NC(=O)CN2CCOCC2)oc(-c2ccccc2)c1-c1ccccc1 | -2.61
82 | CC1(C)CC(=O)C=C(NCc2ccccc2)C1 | -0.0068
83 | CCCNc1nc(OCC(F)(F)F)nc(OCC(F)(F)F)n1 | 0.0542
84 | O=C(COc1ccc(Cl)cc1)Nc1nc(-c2ccc(S(=O)(=O)N3CCOCC3)cc2)cs1 | 0.354
85 | COc1ccc(C(=O)On2c(-c3ccc(Br)cc3)nc3ccccc3c2=O)cc1 | 0.263
86 | Cc1c(-c2ccccc2)nc(N)c(C#N)c1-c1cccs1 | -0.169
87 | O=C(c1cccs1)N1CCN(Cc2ccccc2[N+](=O)[O-])CC1 | -0.09
88 | Cc1ccc(N2CC(C(=O)NCc3cccs3)CC2=O)cc1 (configuration not stated) | 0.102
89 | CCOC(=O)c1c(C)nc2c(c1-c1ccc(OC)c(OC)c1)C(=O)c1ccccc1-2 | -0.263
90 | COC(=O)c1c(-c2ccc(F)cc2)noc1N | 0.173
91 | Cc1onc(-c2c(Cl)cccc2Cl)c1C(=O)N1CCCc2ccccc21 | 1.15
92 | Cc1ccc(NC(C)C(=O)N/N=C/c2c[nH]c3ccccc23)cc1 (configuration not stated) | 0.0754

Row | Structure (SMILES) | z-score
93 | O=C(CSc1cc(Cl)ccc1Cl)NC1CCCc2ccccc21 (configuration not stated) | -0.328
94 | COc1ccccc1N1CCN(C(=O)CCn2c(=O)[nH]c3ccsc3c2=O)CC1 | -2.41
95 | N#Cc1c(SCC(N)=O)nsc1SCc1ccc(Cl)cc1 | 0.0118
96 | COc1ccccc1NC(=O)C1CCCN(c2nc(C)cc(C)n2)C1 (configuration not stated) | -0.0699
97 | CCOC(=O)C1CCCN(C(=O)CN2C(=O)/C(=C/c3ccc(OC)cc3)Oc3ccccc32)C1 (configuration not stated) | -0.318
98 | COC(=O)c1ccc(NC(=S)NC(=O)c2cc(-c3ccccc3)nc3ccccc23)cc1 | active: 8.36
99 | O=C(c1ccc(Cl)cc1)N1CCC(O)(CSc2ccc(Cl)cc2Cl)CC1 | -0.17
100 | CCN(CC)CCCNC(=O)/C(=C\c1cccn1C)NC(=O)c1cccs1 | 0.845
101 | O=C(COC(=O)c1cc(-c2ccncc2)nc2ccccc12)Nc1ccc2c(c1)OCO2 | -0.286
102 | CNc1nnc(-c2cc3ccccc3oc2=O)s1 | -0.268
103 | COc1ccc(CN2CN=C(Nc3nc4ccccc4s3)NC2)cc1 | -0.3
104 | CCc1cc2cc(C(=O)N3CCN(c4ccccc4)CC3)sc2s1 | -0.159
105 | CCCc1nnc(NC(=O)CN2CCN(C)CC2)s1 | 1.46
106 | O=C(N/N=C/c1cccc(Oc2ccccc2)c1)c1cccc(Br)c1 | -0.0718
107 | CC(C)NC(=S)N/N=C/c1cc(Br)ccc1O | active: 6.43
108 | O=C1CC(N2CCN(c3nc4ccccc4s3)CC2)C(=O)N1c1ccc(F)cc1 (configuration not stated) | active: 7.65
109 | Cn1c(=O)c(C(=O)CN2CCOCC2)c(N)n(Cc2ccccc2)c1=O | -1.46
110 | O=C(NCc1cccs1)c1cc2c(s1)-c1ccccc1OC2 | -0.399
111 | CNS(=O)(=O)c1ccc(C)cc1 | -0.457
112 | c1cncc(CNc2ccc3c(c2)OCO3)c1 | -0.179
